Laboratory results taken from the supplement of paper PMC8728848.
The list shows a part of the results.

Key:
Test in all cases: glycan array binding signal (z-score within array); higher = stronger binding
Details in all cases: glycan notation: IUPAC condensed, linker removed
[1] = target: Gal(b1-3)GlcNAc(b1-2)Man(a1-3)[GlcNAc(b1-4)][Gal(b1-3)GlcNAc(b1-2)Man(a1-6)]Man(b1-4)GlcNAc(b1-4)GlcNAc
Procedure, shortened: (§1)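 Glycan array data were curated from 3228 arrays in the Consortium for Functional Glycomics database and kept only where the protein sequence was available. Glycan names were converted to IUPAC-condensed notation, and columns mapping to the same glycan were averaged. The binding signal is a within-array Z-score, averaged across arrays of the same protein sequence at different concentrations or buffers and across linkers. Negative Z-scores can be read as non-binding.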

[2] = target: Gal(b1-3)GlcNAc(b1-2)[Gal(b1-3)GlcNAc(b1-6)]Man(a1-6)[Gal(b1-3)GlcNAc(b1-2)Man(a1-3)]Man(b1-4)GlcNAc(b1-4)GlcNAc
Procedure, shortened: as §1

[3] = target: Gal(b1-3)GlcNAc(b1-3)Gal(b1-3)GlcNAc
Procedure, shortened: as §1

[4] = target: Gal(b1-3)GlcNAc(b1-3)Gal(b1-4)Glc
Procedure, shortened: as §1

[5] = target: Gal(b1-3)GlcNAc(b1-3)Gal(b1-4)GlcNAc
Procedure, shortened: as §1

[6] = target: Gal(b1-3)GlcNAc(b1-3)Gal(b1-4)GlcNAc(b1-2)Man(a1-3)[Gal(b1-3)GlcNAc(b1-3)Gal(b1-4)GlcNAc(b1-2)Man(a1-6)]Man(b1-4)GlcNAc(b1-4)GlcNAc
Procedure, shortened: as §1

[7] = target: Gal(b1-3)GlcNAc(b1-3)Gal(b1-4)GlcNAc(b1-2)[Gal(b1-3)GlcNAc(b1-3)Gal(b1-4)GlcNAc(b1-6)]Man(a1-6)[Gal(b1-3)GlcNAc(b1-3)Gal(b1-4)GlcNAc(b1-2)Man(a1-3)]Man(b1-4)GlcNAc(b1-4)[Fuc(a1-6)]GlcNAc
Procedure, shortened: as §1

[8] = target: Gal(b1-3)GlcNAc(b1-3)Gal(b1-4)GlcNAc(b1-3)Gal(b1-4)GlcNAc(b1-2)[Gal(b1-3)GlcNAc(b1-3)Gal(b1-4)GlcNAc(b1-3)Gal(b1-4)GlcNAc(b1-6)]Man(a1-6)[Gal(b1-3)GlcNAc(b1-3)Gal(b1-4)GlcNAc(b1-3)Gal(b1-4)GlcNAc(b1-2)Man(a1-3)]Man(b1-4)GlcNAc(b1-4)[Fuc(a1-6)]GlcNAc
Procedure, shortened: as §1

[9] = target: Gal(b1-3)GlcNAc(b1-3)Gal(b1-4)GlcNAc(b1-6)[Gal(b1-3)GlcNAc(b1-3)]Gal(b1-4)Glc
Procedure, shortened: as §1

[10] = target: Gal(b1-3)GlcNAc(b1-3)Gal(b1-4)[Fuc(a1-3)]GlcNAc
Procedure, shortened: as §1

[11] = target: Gal(b1-3)GlcNAc(b1-3)Gal(b1-4)[Fuc(a1-3)]GlcNAc(b1-6)[Gal(b1-3)GlcNAc(b1-3)]Gal(b1-4)Glc
Procedure, shortened: as §1

[12] = target: Gal(b1-3)GlcNAc(b1-3)GalNAc
Procedure, shortened: as §1

[13] = target: Gal(b1-3)GlcNAc(b1-6)Gal(b1-4)GlcNAc
Procedure, shortened: as §1

[14] = target: Gal(b1-3)GlcNAc(b1-6)GalNAc
Procedure, shortened: as §1

[15] = target: Gal(b1-3)GlcNAc(b1-6)[Gal(b1-3)]GalNAc
Procedure, shortened: as §1

Gal(b1-3)GlcNAc6S = target: Gal(b1-3)GlcNAc6S
Procedure, shortened: as §1

[16] = target: Gal(b1-3)[Fuc(a1-4)]GlcNAc
Procedure, shortened: as §1

[17] = target: Gal(b1-3)[Fuc(a1-4)]GlcNAc(b1-2)Man
Procedure, shortened: as §1

[18] = target: Gal(b1-3)[Fuc(a1-4)]GlcNAc(b1-2)Man(a1-3)[Gal(b1-3)[Fuc(a1-4)]GlcNAc(b1-2)Man(a1-6)]Man(b1-4)GlcNAc(b1-4)[Fuc(a1-6)]GlcNAc
Procedure, shortened: as §1

[19] = target: Gal(b1-3)[Fuc(a1-4)]GlcNAc(b1-3)Gal(b1-3)[Fuc(a1-4)]GlcNAc
Procedure, shortened: as §1

[20] = target: Gal(b1-3)[Fuc(a1-4)]GlcNAc(b1-3)Gal(b1-4)[Fuc(a1-3)]GlcNAc
Procedure, shortened: as §1

[21] = target: Gal(b1-3)[Fuc(a1-4)]GlcNAc(b1-6)GalNAc
Procedure, shortened: as §1

[22] = target: Gal(b1-3)[GlcNAc(b1-6)]GalNAc
Procedure, shortened: as §1

[23] = target: Gal(b1-3)[Neu5Ac(a2-6)]GalNAc
Procedure, shortened: as §1

[24] = target: Gal(b1-3)[Neu5Ac(a2-6)]GlcNAc(b1-4)Gal(b1-4)Glc
Procedure, shortened: as §1

[25] = target: Gal(b1-3)[Neu5Ac(b2-6)]GalNAc
Procedure, shortened: as §1

Gal(b1-4)Gal = target: Gal(b1-4)Gal
Procedure, shortened: as §1

[26] = target: Gal(b1-4)GalNAc(a1-3)[Fuc(a1-2)]Gal(b1-4)GlcNAc
Procedure, shortened: as §1

[27] = target: Gal(b1-4)GalNAc(b1-3)[Fuc(a1-2)]Gal(b1-4)GlcNAc
Procedure, shortened: as §1

Gal(b1-4)Glc = target: Gal(b1-4)Glc
Procedure, shortened: as §1

Gal(b1-4)Glc6S = target: Gal(b1-4)Glc6S
Procedure, shortened: as §1

Gal(b1-4)GlcNAc = target: Gal(b1-4)GlcNAc
Procedure, shortened: as §1

[28] = target: Gal(b1-4)GlcNAc(a1-6)Gal(b1-4)GlcNAc
Procedure, shortened: as §1

Gal(b1-4)GlcNAc(b1-2)Man = target: Gal(b1-4)GlcNAc(b1-2)Man
Procedure, shortened: as §1

[29] = target: Gal(b1-4)GlcNAc(b1-2)Man(a1-3)Man(b1-4)GlcNAc(b1-4)GlcNAc
Procedure, shortened: as §1

[30] = target: Gal(b1-4)GlcNAc(b1-2)Man(a1-3)[Gal(b1-4)GlcNAc(b1-2)Man(a1-6)]Man(b1-4)GlcNAc(b1-4)GlcNAc
Procedure, shortened: as §1

[31] = target: Gal(b1-4)GlcNAc(b1-2)Man(a1-3)[Gal(b1-4)GlcNAc(b1-2)Man(a1-6)]Man(b1-4)GlcNAc(b1-4)[Fuc(a1-6)]GlcNAc
Procedure, shortened: as §1

[32] = target: Gal(b1-4)GlcNAc(b1-2)Man(a1-3)[Gal(b1-4)GlcNAc(b1-2)Man(a1-6)][Gal(b1-4)GlcNAc(b1-4)]Man(b1-4)GlcNAc(b1-4)[Fuc(a1-6)]GlcNAc
Procedure, shortened: as §1

[33] = target: Gal(b1-4)GlcNAc(b1-2)Man(a1-3)[Gal(b1-4)GlcNAc(b1-2)Man(a1-6)][GlcNAc(b1-4)]Man(b1-4)GlcNAc(b1-4)[Fuc(a1-6)]GlcNAc
Procedure, shortened: as §1

[34] = target: Gal(b1-4)GlcNAc(b1-2)Man(a1-3)[GlcNAc(b1-2)Man(a1-6)]Man(b1-4)GlcNAc(b1-4)GlcNAc
Procedure, shortened: as §1

[35] = target: Gal(b1-4)GlcNAc(b1-2)Man(a1-3)[GlcNAc(b1-4)][Gal(b1-4)GlcNAc(b1-2)Man(a1-6)]Man(b1-4)GlcNAc(b1-4)GlcNAc
Procedure, shortened: as §1

[36] = target: Gal(b1-4)GlcNAc(b1-2)Man(a1-3)[Man(a1-6)]Man(b1-4)GlcNAc(b1-4)GlcNAc
Procedure, shortened: as §1

[37] = target: Gal(b1-4)GlcNAc(b1-2)Man(a1-6)Man(b1-4)GlcNAc(b1-4)GlcNAc
Procedure, shortened: as §1

[38] = target: Gal(b1-4)GlcNAc(b1-2)Man(a1-6)[GlcNAc(b1-2)Man(a1-3)]Man(b1-4)GlcNAc(b1-4)GlcNAc
Procedure, shortened: as §1

[39] = target: Gal(b1-4)GlcNAc(b1-2)Man(a1-6)[Man(a1-3)]Man(b1-4)GlcNAc(b1-4)GlcNAc
Procedure, shortened: as §1

B1: Clrb (Mus musculus) (protein)
chain: ITGATKTEQIPVNKTYAACPQNWIGVENKCFYFSEYPSNWTFAQAFCMAQEAQLARFDNQDELNFLMRYKANFDSWIGLHRESSEHPWKWTDNTEYNNTIPIRGEERFAYLNNNGISSTRIYSLRMWICSKLNSYSLHCQTPFFPSGTKHHHHHHHHG
glycan array binding signal (z-score) [1]: 0.722
glycan array binding signal (z-score) [2]: -0.249
glycan array binding signal (z-score) [3]: -0.431
glycan array binding signal (z-score) [4]: -0.439
glycan array binding signal (z-score) [5]: -0.135
glycan array binding signal (z-score) [6]: -0.139
glycan array binding signal (z-score) [7]: -0.14
glycan array binding signal (z-score) [8]: -0.13
glycan array binding signal (z-score) [9]: -0.396
glycan array binding signal (z-score) [10]: -0.121
glycan array binding signal (z-score) [11]: -0.292
glycan array binding signal (z-score) [12]: -0.536
glycan array binding signal (z-score) [13]: -0.399
glycan array binding signal (z-score) [14]: -0.373
glycan array binding signal (z-score) [15]: -0.424
glycan array binding signal (z-score) (Gal(b1-3)GlcNAc6S): -0.362
glycan array binding signal (z-score) [16]: -0.303
glycan array binding signal (z-score) [17]: -0.176
glycan array binding signal (z-score) [18]: -0.438
glycan array binding signal (z-score) [19]: -0.404
glycan array binding signal (z-score) [20]: -0.336
glycan array binding signal (z-score) [21]: -0.534
glycan array binding signal (z-score) [22]: -0.186
glycan array binding signal (z-score) [23]: -0.193
glycan array binding signal (z-score) [24]: -0.219
glycan array binding signal (z-score) [25]: -0.15
glycan array binding signal (z-score) (Gal(b1-4)Gal): -0.439
glycan array binding signal (z-score) [26]: -0.379
glycan array binding signal (z-score) [27]: -0.353
glycan array binding signal (z-score) (Gal(b1-4)Glc): -0.305
glycan array binding signal (z-score) (Gal(b1-4)Glc6S): -0.22
glycan array binding signal (z-score) (Gal(b1-4)GlcNAc): -0.146
glycan array binding signal (z-score) [28]: -0.238
glycan array binding signal (z-score) (Gal(b1-4)GlcNAc(b1-2)Man): -0.222
glycan array binding signal (z-score) [29]: -0.355
glycan array binding signal (z-score) [30]: -0.431
glycan array binding signal (z-score) [31]: -0.343
glycan array binding signal (z-score) [32]: -0.193
glycan array binding signal (z-score) [33]: -0.016
glycan array binding signal (z-score) [34]: -0.459
glycan array binding signal (z-score) [35]: -0.33
glycan array binding signal (z-score) [36]: -0.264
glycan array binding signal (z-score) [37]: -0.484
glycan array binding signal (z-score) [38]: -0.496
glycan array binding signal (z-score) [39]: -0.431
